The assay deals with BUBR1 (endogenous, HEK-293T) (human (endogenous in HEK-293T)) (UniProt O60566). Description: co-IP; HEK-293T cells cotransfected with truncated mutants of progerin-C and HA-progerin; progerin IP with the anti-HA antibody.

Sequences of proteins named here, by UniProt entry; tags and fusion partners are left off.
UniProt O60566: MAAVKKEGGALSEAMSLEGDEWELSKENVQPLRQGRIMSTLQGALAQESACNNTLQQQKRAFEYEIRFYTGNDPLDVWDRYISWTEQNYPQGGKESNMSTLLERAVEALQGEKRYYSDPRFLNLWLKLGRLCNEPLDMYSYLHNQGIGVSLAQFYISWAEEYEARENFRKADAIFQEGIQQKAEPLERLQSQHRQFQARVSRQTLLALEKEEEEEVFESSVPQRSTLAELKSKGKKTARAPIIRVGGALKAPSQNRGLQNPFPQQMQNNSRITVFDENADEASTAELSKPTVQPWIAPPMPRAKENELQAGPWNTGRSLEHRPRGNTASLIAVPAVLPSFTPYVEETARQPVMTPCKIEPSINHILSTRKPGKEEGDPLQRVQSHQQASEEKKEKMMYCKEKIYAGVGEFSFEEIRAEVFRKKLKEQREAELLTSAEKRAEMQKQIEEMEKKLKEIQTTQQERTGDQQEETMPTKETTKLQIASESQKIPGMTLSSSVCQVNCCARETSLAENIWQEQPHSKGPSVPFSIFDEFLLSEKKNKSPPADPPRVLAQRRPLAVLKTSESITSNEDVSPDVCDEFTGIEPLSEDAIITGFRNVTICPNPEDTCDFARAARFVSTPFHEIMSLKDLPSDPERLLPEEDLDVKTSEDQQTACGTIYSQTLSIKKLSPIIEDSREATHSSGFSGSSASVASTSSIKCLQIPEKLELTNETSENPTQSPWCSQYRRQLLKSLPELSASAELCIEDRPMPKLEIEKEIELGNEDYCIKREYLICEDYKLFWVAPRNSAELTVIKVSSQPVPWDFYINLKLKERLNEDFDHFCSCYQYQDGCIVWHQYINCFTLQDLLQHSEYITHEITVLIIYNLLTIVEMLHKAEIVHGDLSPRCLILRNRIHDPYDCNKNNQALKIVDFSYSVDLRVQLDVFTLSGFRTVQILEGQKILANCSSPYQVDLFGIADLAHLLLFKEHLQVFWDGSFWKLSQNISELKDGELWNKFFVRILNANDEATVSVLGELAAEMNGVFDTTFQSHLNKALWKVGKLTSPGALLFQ

These are yes or no findings as the source states them, for the method shown. Binding seen in cells or lysates may run through a third protein. Some results given as binding are weak or reduced against the parent protein; the word gives no strength.

YNLRSRTVLCGTCGQPADKASASGSGAQSPQNCSIM (domain or fragment) [progerin-C36 (aa residues 579–614)]: the binding entry is on record as “binds”.
